# Laboratory results reported in PubChem BioAssay AID624418 (National Center for Advancing Translational Sciences (NCATS), 2012).
# The campaign covered roughly 410,000 compounds. About 530 (0.13%) were called active. The shares of active, inactive and inconclusive entries below differ from those in the screen. Calls come from the whole dose curve; as a rule, active = well fitted inhibition curve with a large enough effect; inconclusive = small, poorly fitted or top-dose-only effect, or another doubt; inactive = no such curve, though single readings can be large or run the other way. Where the call is inconclusive, the potency comes from a doubtful curve fit.
# Assay: qHTS of GLP-1 Receptor Inverse Agonists: Cytotox Screen
# Conditions: HEK293 cAMP-luciferase reporter cells, luminescence, 24 h; activity change, negative = inhibition: at 38.3 µM (top of the series) unless noted
# In short: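 Quantitative HTS format, 1536 wells, 200 cells/uL seeded. Compounds: 23 nL, 24 h, 37 °C. Detection: luciferase reagent, luminescence at 12 min RT; decreased signal taken as cytotoxic.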
# % is set by controls: 0 for no effect and ±100 for the full control effect; potency is the fitted concentration of half-maximal effect.
SMILES,"activity change, negative = inhibition",Potency
CC(/C=C1\SC(=S)N(NS(=O)(=O)c2ccc(C)cc2)C1=O)=C\c1ccccc1,inconclusive: -33.2% [inhibitor],
Cc1cccc(OCCn2c(NC(=O)c3ccco3)nc3ccccc32)c1,,"inconclusive: 10 µM [inhibitor, single point]"
CCOCCCNC(=O)C(NC(=O)c1ccc(NC(C)=O)cc1)c1ccc(C)cc1 (stereo not drawn),inconclusive: -93.5% [inhibitor] [at 1.53 µM],
Cc1ccc(NC(=O)c2cc(S(=O)(=O)NC3CCCCC3)ccc2F)cc1Cl,inactive: -32%,
Cc1cc(C)c2cc(CN(CC3CCCO3)S(=O)(=O)c3ccc4c(c3)OCCO4)c(=O)[nH]c2c1 (stereo not drawn),,"inconclusive: 22.4 µM [inhibitor, single point]"
CCn1nnc2cc(C(=O)Nc3ccc(C)c(Cl)c3)ccc21,inactive: -3.03%,
Cc1ccc(NC(=O)C2CC(=O)N(Cc3ccccc3)C2)cc1S(=O)(=O)N1CCCCCC1 (stereo not drawn),,"inconclusive: 10 µM [inhibitor, single point]"
C/C(=N\NC(=O)c1ccc(Cl)cc1)c1ccccn1,,"inconclusive: 2.51 µM [inhibitor, full curve, poor fit]"
COc1ccc(NC(=O)c2cc(C3CCCCN3C(=O)OCc3ccccc3)on2)c(C)c1 (stereo not drawn),inactive: 5.1%,
COc1cccc(CNc2nc(NCC3CC3)nc3ccsc23)c1OC,,"inconclusive: 12.6 µM [inhibitor, partial curve, poor fit]"
O=C(/C=C/c1cccc([N+](=O)[O-])c1)NCCSCc1c(Cl)cccc1Cl,inactive: 9.56%,
O=C1C(Cl)=C(NCCN2CCOCC2)C(=O)c2ccccc21,,"inconclusive: 28.2 µM [inhibitor, single point]"
C/C=C\C=C/C(=O)Nc1cccc(C2=NOC3(C2)C[C@@H](C(N)=O)N(C(=O)COc2ccc(Cl)cc2)C3)c1 (stereo partly drawn),,"inconclusive: 28.2 µM [inhibitor, single point]"
c1ccc(SSc2ccccn2)nc1,inactive: 8.89%,
Cc1ccc(NC(=S)NC2CCCC2)cc1C,,"inconclusive: 11.2 µM [inhibitor, single point]"
COc1cc2c(cc1OC)/C(=C/C(=O)c1ccc(OC)c([N+](=O)[O-])c1)NCC2,,"inconclusive: 10 µM [inhibitor, single point]"
CCN(CC)S(=O)(=O)c1cccc(C(=O)Nc2sc3c(c2C#N)CCC(C)C3)c1 (stereo not drawn),inactive: -5.94%,
Cc1cccc(COCC(Cc2ccccc2)N2CCN(C(=O)c3ccc(Cl)c(Cl)c3)CCC2=O)c1 (stereo not drawn),,"inconclusive: 3.16 µM [inhibitor, partial curve, poor fit]"
CCOC(=O)C1=C(C)NC(C)=C(C(=O)OC)C1c1cccc([N+](=O)[O-])c1 (stereo not drawn),,"inconclusive: 28.2 µM [inhibitor, single point]"
O=C(COc1ccccc1)N1CCN(C(=O)c2ccco2)CC1,inactive: 0.618%,
Cc1cccc(NNC(=S)Nc2c(C)cccc2C)c1,,"inconclusive: 2.51 µM [inhibitor, partial curve, poor fit]"
CCc1cccc(NC(=O)Nc2cccs2)c1,inactive: -22.5%,

SMILES,"activity change, negative = inhibition",Potency
Cc1ccc(-n2cc(C(C)(C)C)[nH]c2=S)cc1,,"inconclusive: 28.2 µM [inhibitor, single point]"
O=C(N/N=C/c1c[nH]c2ccccc12)C1CC1(c1ccccc1)c1ccccc1 (stereo not drawn),,"inconclusive: 28.2 µM [inhibitor, single point]"
NC(Cc1ccc(Cl)cc1)c1csc(Nc2nccc(C(F)(F)F)n2)n1 (stereo not drawn),,"inconclusive: 28.2 µM [inhibitor, single point]"
O=[N+]([O-])c1ccc(NC(=S)N2CCc3ccccc32)cc1,,"inconclusive: 31.6 µM [inhibitor, single point]"
CSc1nc(SCCN(C)C)c2c3c(sc2n1)COC(C)(C)C3,,"inconclusive: 11.2 µM [inhibitor, partial curve, poor fit]"
COCCNC(=O)c1ccc2c(c1)ncn2-c1cccc(C)c1,,"inconclusive: 3.55 µM [inhibitor, partial curve]"
CC(C)c1ccccc1NC(=O)COc1ccc(C(=O)NCCc2ccccc2)cc1,,"inconclusive: 10 µM [inhibitor, partial curve, poor fit]"
O=C(O)CCCN1C(=O)/C(=C\c2ccc(-c3nc4ccccc4s3)o2)SC1=S,inactive: 39.8%,
O=C(CCCOc1ccc(Cl)cc1Cl)N/N=C/c1ccccc1O,,"inconclusive: 8.91 µM [inhibitor, partial curve, poor fit]"
CCSc1ccc(-c2ccc(C)cc2)nn1,inactive: 0.694%,
COc1cc(NC(=O)c2ccco2)c(C(=O)OCC(=O)c2c[nH]c3ccccc23)cc1OC,,"inconclusive: 28.2 µM [inhibitor, single point]"
O=C(Nc1ccc(F)c(Cl)c1)Nc1csc2ccccc12,,"inconclusive: 12.6 µM [inhibitor, single point]"
CN(C)CCNC(=O)c1ccc(COc2ccc(Cl)cc2Cl)cc1,,"inconclusive: 10 µM [inhibitor, partial curve, poor fit]"
CC(C)(C)c1ccc(Cn2cnc(-c3ccc([N+](=O)[O-])cc3)c2)cc1,,"inconclusive: 11.2 µM [inhibitor, single point]"
CCOc1ccccc1Nc1nnc(SCC(=O)Nc2cccc(S(=O)(=O)NC3=NCCCCC3)c2)s1,,"inconclusive: 12.6 µM [inhibitor, single point]"
S=C(NCCc1ccccc1)N/N=C/c1cccc(Cl)c1Cl,,"inconclusive: 20 µM [inhibitor, single point]"
O=C1N/C(=N\N=C\c2cccs2)SC1Cc1ccc(Cl)cc1Cl (stereo not drawn),inactive: -2.75%,
O=C1/C(=C\c2cccs2)N=C(c2cccs2)N1Nc1ccccc1,,"inconclusive: 7.94 µM [inhibitor, single point]"
CC(=O)Nc1nc(SCC(=O)Nc2nnc(C)s2)[nH]c(=O)c1NC(=O)c1cccs1,,"inconclusive: 15.8 µM [inhibitor, single point]"
COc1ccc(OC)c(CCNC(=O)c2nn(C)c3c2CSc2ccccc2-3)c1,inactive: -2.09%,
Cc1cc(/C=C2/C(=O)NN(c3ccccc3)C2=O)c(C)n1-c1ccc(O)cc1,,"inconclusive: 10 µM [inhibitor, partial curve, poor fit]"
